Laboratory results: FireProtDB (doi:10.1016/j.jmb.2004.06.076)

Conditions: Escherichia coli, 10 °C, Urea, Fluorescence, sodium phosphate 50 mM, reversible: Unknown

## Colicin-E9 immunity protein wild type (chain not printed)
pH 6, Na2SO4 0.4 M
  unfolding free energy: 5.9 kcal/mol
pH 7
  unfolding free energy: 6.48 kcal/mol
